Experimental data: the supplement of paper PMC11417369
The other results are listed elsewhere or left out.

tested on: PfSIP2 AP2 domain 1 (GST-tagged); test: gcPBM binding intensity (ln(normalized median fluorescence intensity)); higher = stronger DNA binding
Method in brief: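 Probes on an Agilent 4 × 180k array were primer-extended, double-stranded and 36 bp long, taken from intergenic genomic regions, with negative controls added. GST-tagged P. falciparum DNA-binding domains from E. coli, about 25 μg on average, were applied to the array for 1 h in 1× PBS containing 1% milk, 0.2 mg/ml BSA, 0.5% salmon testes DNA and 0.03% Triton X-100. Binding intensity, obtained after Alexa488 anti-GST antibody detection and a 488 nm scan, is the highest Masliner-normalised natural-log median intensity across replicate spots of either probe orientation.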

In order of falling “gcPBM binding intensity (ln)” value:
1. ATTATGCACCAACACACACACACACTCCTAAAAAAT [CACACA_site8822]  11.1
2. ATATATATATATATATGTACATATTTATTTATTTAT [XGTACX_site5161]  9.52
3. AGCACAGACTAATAAACACACACATATATATATATA [CACACA_site8021]  9.49
4. AGTAGCATATTCTATTGTACATATATATATATATAT [XGTACX_site2980]  9.44
5. ACTATCATTCATAGGTGTACCTAAATATATATATAT [XGTACX_site1696]  9.41
6. TATATATATATGTGCACACATATATAATATGTATAA [CACACA_site715]  9.37
7. TTCTTTTAATTACGAGTGCATACCATATGACATTAT [GTGCAC_site9819]  9.09
8. TTTAATATGTATTTTTTTTTTTTTTTTTTTTTTTTT [XGTACX_negctrl_site440]  8.68
9. CGAATATATTCTAGACGTACTATATAATATATATAT [XGTACX_site4953]  8.51
10. AAAAAAAATTCGTGTGTGCGCATATATAATATATAA  8.39
11. TATATACAAAAATGCACACGAAAAGTAATATATATA [CACACA_site4173]  8.37
12. TCTTTTTCTTCTTATGTGCACATCAATTATGCTTCT  8.33
13. ATAATAAAAATATATACATGCATTATTATATATATA [TGCATGCA_site799]  8.19
14. TACTGTGATAGCACCACACACGCAAAAGTGGGTATA [CACACA_site4749]  7.97
15. AACATATAAATGATATGTACACACATTTATATATAT [XGTACX_site7364]  7.88
16. CACACGTATAAATATACACACTAAAATACACGCACA [CACACA_site7876]  7.87
17. CAAAAAACAACAGATCGTACAAAATATTATATATAT [XGTACX_site2285]  7.87
18. GATAATTACGGACACACACACACACGCACAACTAAA [CACACA_site7254]  7.78
19. ATATATAAAATTATATGTACATATATAATATATATA [XGTACX_site529]  7.61
20. ATATGTATATATGTATGTACGTACAAATTGTTGTAA [XGTACX_site8832]  7.58
21. TATAACAGGAATTATATATATATATATATATATTAT [CACACA_negctrl_site911]  7.48
22. TATATATATTTTTATGCACACACAAAGAAAATTTTC [CACACA_site8931]  7.48
23. TACTTACTTACTTACTCACACACATATACAAAGAAA [CACACA_site3348]  7.45
24. ATAGTATACGGACACACACACACACCGATATATATA [CACACA_site5032]  7.44
25. TAATAATACCCAAGCACACACACACCCATATATATA [CACACA_site4831]  7.41
26. TTGTTACTGTTTTGGTGTACAAAAAAAAAAAATATA [XGTACX_site5762]  7.4
27. TATAAATACAGATACACACACACACCGATATATATA [CACACA_site5271]  7.4
28. ATTAAAAACGGGTGTACACATATATAAATATATATA [CACACA_site4539]  7.39
29. ATGTTACACCGACACACACACATAAAAAAACAAAAA [CACACA_site5750]  7.37
30. AAAAAAAAAAAAAACACACACACAATAGTATATAAA [CACACA_site957]  7.35
31. TTCAATTAAAAAATATGTACGCATAAATTGATATAT [XGTACX_site4289]  7.33
32. TAGAACAAATAAAACACACACATATATATATATATG [CACACA_site2768]  7.32
33. AACTTCTTTTTTATAACACACAAAATATAAATACAA [CACACA_site4313]  7.31
34. CTCATTCTTTTTTGATGTACTTTTTTTTTTTAAGTT [XGTACX_site2875]  7.31
35. ACATGTCAAACATTTGCACACAAAAAAATAAAAATT [CACACA_site691]  7.3
36. TATCCATATTTGTTCACACACACACCGATTTATATA [CACACA_site5888]  7.26
37. TATATAAAAATCAATTGTACTTTTTTTTTTTTTTTT [XGTACX_site7327]  7.22
38. TATGTAGTTTTAAAGTGTACTTATATATATTAATTG [XGTACX_site378]  7.22
39. TTTATTTTTTAATGTTGTACAATGTTGTTTAATCAA [XGTACX_site6489]  7.19
40. GTTATATTTTTTTTTTGTACATAATATTGTATTGAC [XGTACX_site6338]  7.18
41. TCATCCGTTTTAAGAAGTACATATTTGAACATATAA [XGTACX_site8040]  7.18
42. ATAAATATATATATCACACATATATAATTATATATA [CACACA_site4787]  7.18
43. AAATTATATATATTACGTACATAGAACTTTACAGAA [XGTACX_site6646]  7.18
44. CTTTTTTTAGTTAGGTGTACAATTTGTTATTATTAG [XGTACX_site1507]  7.15
45. AAGCATACATCAAGCACACACACACCCACAGAGACA [CACACA_site4362]  7.15
46. TTTTATGGAAAGTGTTGTACATATTTTTGTATATGT [XGTACX_site7356]  7.12
47. GATGATTATATATATACGCACACTTTTTTTTTTTTT [CACACA_site2652]  7.12
48. TTTTTTTTTTTTTTTTGTACATATTTCTTATAAGTG [XGTACX_site6459]  7.09
49. TACATACATATATTATGTACATATTTTATTTTTATT [XGTACX_site1642]  7.08
50. CAAATTAAATATTATGCATGTACCAAACATCCTACC [TGCATGCA_site35]  7.06
51. AATATATAAATCTATTGTACATAAAGAGGATAATAA [XGTACX_site1022]  7.06
52. AAGAAATAAAAAGAATGTACACAATATGTATTATAA [XGTACX_site4733]  7.06
53. GGAAGAATATATAGGACACACATACAATAATAAATA [CACACA_site6124]  7.05
54. ATAATATTTTTTAATTGTACGTTCCATTTTTTTAAA [XGTACX_site1227]  7.05
55. TATCTTATATTTACACGTACGTAGAATTTATAAGTT [XGTACX_site3460]  7.04
56. AAATAACACATATATACACACATATAACTATAATAT [CACACA_site7298]  7.04
57. ATAAACATCTAGTGCTGTACACAATTTGATTTTTTT [XGTACX_site3110]  7.03
58. ATCACAAAATGGAATGTTCTATGATATATATGTATA [XGTACX_negctrl_site460]  7.02
59. AATATAAATAAAAACACACACAATGGTACATATATA [CACACA_site3671]  7.02
60. ATTGCAAGTTACTTGTGTACTTATAAGATTAAAAGA [XGTACX_site7696]  7.01
61. TTTCTTTTAATAATTAAATATTTATTTATGATTATA [TGCATGCA_negctrl_site30]  7
62. TCTATACCAGAAAAGGGTACATATTTTGGATTGAAC [XGTACX_site8402]  7
63. TTTTTTTTTTTTTTTTTGCAATATATTTTAAAAAAG [CACACA_negctrl_site25]  6.99
64. AATACAGATAATACAACACACAAGTAATATAAACCT [CACACA_site5900]  6.99
65. TACAAAATAACTAGCACACATATGTATAAACCTATA [CACACA_site3718]  6.99
66. CAACAATTTCGTCATACACACATTCAGAATATAGAT [CACACA_site7166]  6.99
67. CCCTTAAAATATAAATGTACAAAATTATTTGTATGT [XGTACX_site6164]  6.98
68. ATATACTATATTTTAACACACAAAAAAAAAAAATAT [CACACA_site1091]  6.98
69. GTGAATATTAAAAAATGTACACAATTATATGTATAT [XGTACX_site4834]  6.96
70. TTGTATAATTTAACAAGTACAAAATAAATTTGTATA [XGTACX_site5505]  6.94
71. CATAGGATTATACTTTTGGAATATTATTAAATATGT [XGTACX_negctrl_site75]  6.94
72. GATTATATATACAAAAGTACATTATAAAAATTTCAT [XGTACX_site4223]  6.93
73. AGAAAAGAGAGAAAAACATGCACATGATATTATAAA [TGCATGCA_site120]  6.93
74. TGTAAATATTTATTCACACATAATCAATTAGAAAAA [CACACA_site5944]  6.93
75. ACCTGAAGAGTCAAACGTACAAATATTATAAAATGA [XGTACX_site3188]  6.92
76. TTATTTCGAAGAAAATGTACATATATAAATATATAC [XGTACX_site3308]  6.92
77. TTTTTTTCTTTTCAAACACACAATTGGTATATATTA [CACACA_site3320]  6.9
78. ATAAATAAATAAATAAATAAATATACATATACATAT [CACACA_negctrl_site205]  6.89
79. AGCATTTTAAGTTATACACACATTTTGAATCTATAT [CACACA_site7599]  6.89
80. TTTTTTTTTTTTTTTTTTTTTTGTGAAACTAAGTAA [CACACA_negctrl_site273]  6.88
81. TGTATAAAGATATATACACACATATTTATTTATATA [CACACA_site6493]  6.88
82. AAAAGAGAAACATTTACACACAAATATAGATATATG [CACACA_site1027]  6.84
83. TCTTATTCAAACGTAAAACGAAGAAGAAAAAAAAAA [CACACA_negctrl_site149]  6.83
84. TGGACAATTGTTTATTGTACTTAAATTTTATGTTCT [XGTACX_site8974]  6.82
85. TTTTATATCTAGTTTATATTTCTTAAATAAATAAAT [GTGCAC_negctrl_site245]  6.78
86. TTAATACATTAAATATGTACTTATATATCTCAACTA [XGTACX_site3997]  6.75
87. TTTAAATCGTTAAAAACACACAAAAAAAATCAATTA [CACACA_site2519]  6.74
88. TAATACAAAAAGAAAAGTACATGTTAATTATTATTT [XGTACX_site2196]  6.71
89. TTTTATTAATATTATTTATCTTCTCAAAAGATATAT [XGTACX_negctrl_site202]  6.7
